# Test results: PubChem BioAssay (NCATS)
# Several values for one entry are separate records, joined by “and”; a condition that tells them apart may be missing. Identical values can stand only once. Inconclusive results, whose numbers are uncertain, are shown with a selection of clear calls. For some of these results: Where the call is inconclusive, the potency comes from a doubtful curve fit. For some of these results: A note “side channel” means that the fit belongs to a control or component signal, not to the main read-out. Activity calls are given as the source filed them. Unless noted, calls come from the whole dose curve; as a rule, active = well fitted curve in the direction sought with a large enough effect; inconclusive = small, poorly fitted or top-dose-only effect, or another doubt; inactive = no such curve, though single readings can be large; an effect the other way counts as inactive or inconclusive.
# How the values were obtained:
# [1] = AP1 Signaling Pathway (AID 357; active = well fitted curve in either direction with a large enough effect, not every such curve was filed as active; inconclusive = small, poorly fitted or top-dose-only effect, or another doubt; note: top concentration of the series differs between compounds; % is set by controls: 0 for no effect and ±100 for the full control effect); details: ME-180 AP-1-bla reporter, EGF-induced, beta-lactamase ratio, 5 h; at 7.69 µM (top of the series) unless noted
# How it was run: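 Modulation of EGF-driven AP-1 transcription was assessed with a beta-lactamase reporter in ME-180 cells. Compound and EC50 EGF were co-incubated 5 hours at 37 °C before 2.5-hour CCF4 loading at room temperature and dual-emission reading.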
# [2] = NFAT Signaling Pathway (AID 444; active = well fitted curve in either direction with a large enough effect, not every such curve was filed as active; inconclusive = small, poorly fitted or top-dose-only effect, or another doubt;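 note: carbachol stimulus at about its EC50 of 1 µM final; % is set by controls: 0 for no effect and ±100 for the full control effect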); details: Jurkat NFAT-bla M1, carbachol, beta-lactamase ratio, 5 h; at 7.69 µM (top of the series) unless noted
# How it was run: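 Jurkat cells with NFAT-driven β-lactamase reporter and co-expressed M1 receptor, stimulated with carbachol (final 1 uM, ~EC50), compound titration, 5 h at 37 °C. CCF4 loaded 1 h at RT; 460/530 nm ratio gave %activity and AC50.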
# [3] = target: 3',5'-cyclic-AMP phosphodiesterase 4B (Homo sapiens) (UniProt Q07343); test: qHTS Assay for Inhibitors of PDE-IV (AID 607; active = well fitted activation curve with a large enough effect in the main read-out, with a control signal flat, not every such curve was filed as active; inconclusive = small, poorly fitted or top-dose-only effect, or effect the other way, or a change in a side signal; note: potency is the fitted concentration of half-maximal effect; for activation (PDE inhibition): % of control where 0% means no effect); details: HEK293 ACTOne CNG channel cells, membrane potential fluorescence; activation (PDE inhibition): at 22.9 µM (top of the series)
# UniProt Q07343, sequence (Q07343 whole entry, looked up): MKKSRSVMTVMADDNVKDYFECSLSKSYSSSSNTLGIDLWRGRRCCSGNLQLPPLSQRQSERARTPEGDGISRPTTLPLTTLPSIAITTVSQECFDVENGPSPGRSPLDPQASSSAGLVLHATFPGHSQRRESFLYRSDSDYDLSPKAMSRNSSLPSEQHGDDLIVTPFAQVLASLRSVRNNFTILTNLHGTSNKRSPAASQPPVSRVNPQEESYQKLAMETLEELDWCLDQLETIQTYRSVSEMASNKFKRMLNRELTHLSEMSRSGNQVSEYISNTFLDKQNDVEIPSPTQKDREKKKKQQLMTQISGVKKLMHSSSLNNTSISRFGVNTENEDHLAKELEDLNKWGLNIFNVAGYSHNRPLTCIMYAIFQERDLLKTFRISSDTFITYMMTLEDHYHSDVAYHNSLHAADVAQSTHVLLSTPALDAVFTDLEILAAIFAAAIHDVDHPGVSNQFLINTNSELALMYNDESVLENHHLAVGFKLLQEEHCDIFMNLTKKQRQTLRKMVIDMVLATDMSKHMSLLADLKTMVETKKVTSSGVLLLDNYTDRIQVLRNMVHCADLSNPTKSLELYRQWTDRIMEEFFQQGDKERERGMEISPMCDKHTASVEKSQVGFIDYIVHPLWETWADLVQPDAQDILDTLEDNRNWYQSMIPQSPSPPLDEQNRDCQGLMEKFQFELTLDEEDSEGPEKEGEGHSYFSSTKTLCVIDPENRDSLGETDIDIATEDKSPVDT
# How it was run: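 Cell-based read-out of cAMP via a modified cyclic nucleotide-gated channel and membrane potential dye (535/590 nm) in HEK293 cells expressing PDE4 endogenously. Compounds tested up to 22.9 uM final; 100 uM RO 20-1724 reference.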
# [4] = target: Cytochrome P450 3A4 (Homo sapiens) (UniProt P08684); test: qHTS Assay for Inhibitors and Substrates of Cytochrome P450 3A4 (AID 884); details: recombinant CYP3A4, Luciferin-PPXE luminescence; activity change, negative = inhibition: at 57.1 µM (top of the series); note: potency is the fitted concentration of half-maximal effect; nearly all actives have a fitted effect of over 50% in size
# UniProt P08684, sequence (P08684 whole entry, looked up): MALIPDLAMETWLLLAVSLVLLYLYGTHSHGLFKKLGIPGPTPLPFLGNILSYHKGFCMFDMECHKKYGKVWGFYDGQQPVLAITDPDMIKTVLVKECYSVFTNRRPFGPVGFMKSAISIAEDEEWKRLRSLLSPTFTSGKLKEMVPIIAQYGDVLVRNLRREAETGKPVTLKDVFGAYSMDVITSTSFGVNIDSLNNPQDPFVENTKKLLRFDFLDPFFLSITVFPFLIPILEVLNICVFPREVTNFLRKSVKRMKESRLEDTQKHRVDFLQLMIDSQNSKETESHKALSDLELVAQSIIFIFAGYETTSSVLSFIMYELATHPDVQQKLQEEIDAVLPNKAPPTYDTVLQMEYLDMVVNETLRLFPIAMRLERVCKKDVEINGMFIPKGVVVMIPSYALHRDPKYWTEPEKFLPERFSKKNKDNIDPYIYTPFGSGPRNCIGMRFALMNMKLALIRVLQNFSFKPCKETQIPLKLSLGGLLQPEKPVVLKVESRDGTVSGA
# How it was run: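 20 nM human CYP3A4 with 25 uM Luciferin-PPXE (at KM) in 200 mM KPO4, preincubated 10 min with compound; NADPH regeneration started a 60 min RT reaction. Luciferin detected by luminescence, normalized to 57 uM ketoconazole as full inhibition.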
# [5] = qHTS Assay for Identification of Small Molecule Antagonists for NFkB Signaling Pathway (AID 895; active = well fitted inhibition curve with a large enough effect in the signal ratio, with a control signal flat, not every such curve was filed as active; inconclusive = small, poorly fitted or top-dose-only effect, or effect the other way, or a change in a side signal; the % refers to the signal ratio; note: potency is the fitted concentration of half-maximal effect; for activity change, negative = inhibition: % is set by controls: 0 for no effect and ±100 for the full control effect); details: NFkB beta-lactamase reporter cells, FRET ratio 460/530, stimulated with 10 pM TNF alpha; activity change, negative = inhibition: at 38.3 µM (top of the series)
# How it was run: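 ME-180 NFkB-bla cells (beta-lactamase under NFkB response element), plated overnight, treated with compound then 10 pM TNF alpha (about EC50) for 5 hrs at 37 C. LiveBLAzer FRET read at 460/530 nm emission, 405 nm excitation.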
# [6] = qHTS Assay for Identification of Small Molecule Agonists for Hypoxia Response Element Signaling Pathway (AID 914; active = well fitted activation curve with a large enough effect in the signal ratio, with a control signal flat, not every such curve was filed as active; inconclusive = small, poorly fitted or top-dose-only effect, or effect the other way, or a change in a side signal; the % refers to the signal ratio; note: potency is the fitted concentration of half-maximal effect; for activation: top concentration of the series differs between compounds; % of control where 0% means no effect); details: ME-180 (cervical carcinoma) HRE-bla reporter, beta-lactamase ratio, CoCl2, 17 h; activation: active compounds read high
# How it was run: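 Cells were plated overnight, pin-dosed with compound in a titration series, co-stimulated with EC50 CoCl2 and incubated 17 hours at 37 degrees Celsius. CCF4 substrate was then loaded, and AC50 values came from the 460nm/530nm ratio.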
# [7] = qHTS Assay for Identification of Small Molecule Agonists for Thrombopoietin (TPO) Signaling Pathway (AID 917); note: potency is the fitted concentration of half-maximal effect
# How it was run: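 Reporter: GpIIb promoter–luciferase in murine Ba/F3 expressing human TPO receptor. Pre-starved of IL-3 overnight; compounds with 26 pM TPO, 24 hrs, 37 C/5% CO2; luminescence read.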
# [8] = qHTS Assay for Identification of Small Molecule Antagonists for Thrombopoietin (TPO) Signaling Pathway (AID 918); details: TPO-dependent cell signaling reporter, antagonist mode; activity change, negative = inhibition: at 38.5 µM (top of the series); note: nearly all actives have a fitted effect of over 60% in size; note: potency is the fitted concentration of half-maximal effect
# How it was run: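 Ba/F3 (murine, hTPO-R, GPIIb-luc reporter); overnight IL-3 withdrawal; cpd + TPO 26 pM final (EC50); 24 h 37 C/5% CO2; Steadylite luminescence after 10 min RT.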
# [9] = target: Muscarinic acetylcholine receptor M1 (Rattus norvegicus) (UniProt P08482); test: qHTS Assay for Antagonists of Acetylcholine Muscarinic M1 Receptor: Kinetic Measurement of Intracellular Calcium Response (AID 943);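 note: Fluo-4 calcium signal as peak divided by basal fluorescence over 4 min; nearly all actives have a fitted effect of over 75% in size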
# UniProt P08482, sequence (P08482 whole entry, looked up): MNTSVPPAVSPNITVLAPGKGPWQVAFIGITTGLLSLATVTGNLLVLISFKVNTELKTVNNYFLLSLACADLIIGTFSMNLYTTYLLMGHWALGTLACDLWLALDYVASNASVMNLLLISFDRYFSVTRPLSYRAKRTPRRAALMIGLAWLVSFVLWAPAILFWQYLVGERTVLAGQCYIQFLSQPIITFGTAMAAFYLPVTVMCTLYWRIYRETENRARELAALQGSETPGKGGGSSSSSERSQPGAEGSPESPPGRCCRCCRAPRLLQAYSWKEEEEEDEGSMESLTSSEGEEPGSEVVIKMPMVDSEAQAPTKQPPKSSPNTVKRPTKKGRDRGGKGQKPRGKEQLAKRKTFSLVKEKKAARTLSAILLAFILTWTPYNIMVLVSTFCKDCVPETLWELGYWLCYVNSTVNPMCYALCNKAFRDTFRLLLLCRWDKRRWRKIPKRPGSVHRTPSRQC
# How it was run: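 Rat M1-CHO cells, 2000/well, overnight → Fluo-4 no-wash dye with probenecid, 1 h 37C → compound 10 min, room temp → basal read 6 s → carbachol EC80 (100 nM) → 4 min kinetic read; peak/basal.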
# [10] = target: Endonuclease 4 (Escherichia coli (strain K12)) (UniProt P0A6C1); test: Counterscreen for APE1 Inhibitors: qHTS Validation Assay for Inhibitors of Endonuclease IV (AID 1708); note: potency is the fitted concentration of half-maximal effect
# How it was run: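 E. coli EndoIV at 2 nM final, preincubated 15 min at room temperature with compound, then 50 nM TAMRA/BHQ-2 THF abasic-site duplex added. Buffer: 50 mM Tris-HCl pH 7.5, 50 mM NaCl, 2 mM MgCl2, 1 mM DTT, 0.01% Tween-20. Kinetic fluorescence increase, third minus first read.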
# [11] = qHTS for differential inhibitors of proliferation of Plasmodium falciparum line 7G8 (AID 1815);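 note: parasite growth measured after three days of incubation; plate controls were vehicle wells for no effect and reference inhibitor wells for full effect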
# [12] = qHTS for differential inhibitors of proliferation of Plasmodium falciparum line HB3 (AID 1886); details: Potency: Plasmodium falciparum HB3 proliferation inhibition;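 note: parasites grown with compound for 72 h before SYBR Green readout; plate controls were vehicle for no effect and reference inhibitor for full effect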
# [13] = target: Ferritin light chain (Equus caballus) (UniProt P02791); test: qHTS Validation Assay for Identification of Novel General Anesthetics (AID 2323); note: potency is the fitted concentration of half-maximal effect
# UniProt P02791, sequence (P02791 whole entry, looked up): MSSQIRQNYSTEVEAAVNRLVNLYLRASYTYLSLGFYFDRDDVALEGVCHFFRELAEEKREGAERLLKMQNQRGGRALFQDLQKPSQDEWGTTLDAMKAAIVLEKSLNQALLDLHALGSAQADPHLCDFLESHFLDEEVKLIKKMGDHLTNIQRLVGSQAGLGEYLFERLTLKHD
# How it was run: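 Competitive displacement of the profluorescent anesthetic 1-AMA (50% saturated, PBS) from 10 uM apoferritin, 10 min, room temperature. Activity is normalized 380/535 nm fluorescence; concentration-response fitted with a four-parameter Hill equation.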
# [14] = target: RecQ-like DNA helicase BLM (Homo sapiens) (UniProt P54132); test: qHTS Validation Assay for Inhibitors of Bloom's syndrome helicase (BLM) (AID 2364); note: potency is the fitted concentration of half-maximal effect
# UniProt P54132, sequence (P54132 whole entry, looked up): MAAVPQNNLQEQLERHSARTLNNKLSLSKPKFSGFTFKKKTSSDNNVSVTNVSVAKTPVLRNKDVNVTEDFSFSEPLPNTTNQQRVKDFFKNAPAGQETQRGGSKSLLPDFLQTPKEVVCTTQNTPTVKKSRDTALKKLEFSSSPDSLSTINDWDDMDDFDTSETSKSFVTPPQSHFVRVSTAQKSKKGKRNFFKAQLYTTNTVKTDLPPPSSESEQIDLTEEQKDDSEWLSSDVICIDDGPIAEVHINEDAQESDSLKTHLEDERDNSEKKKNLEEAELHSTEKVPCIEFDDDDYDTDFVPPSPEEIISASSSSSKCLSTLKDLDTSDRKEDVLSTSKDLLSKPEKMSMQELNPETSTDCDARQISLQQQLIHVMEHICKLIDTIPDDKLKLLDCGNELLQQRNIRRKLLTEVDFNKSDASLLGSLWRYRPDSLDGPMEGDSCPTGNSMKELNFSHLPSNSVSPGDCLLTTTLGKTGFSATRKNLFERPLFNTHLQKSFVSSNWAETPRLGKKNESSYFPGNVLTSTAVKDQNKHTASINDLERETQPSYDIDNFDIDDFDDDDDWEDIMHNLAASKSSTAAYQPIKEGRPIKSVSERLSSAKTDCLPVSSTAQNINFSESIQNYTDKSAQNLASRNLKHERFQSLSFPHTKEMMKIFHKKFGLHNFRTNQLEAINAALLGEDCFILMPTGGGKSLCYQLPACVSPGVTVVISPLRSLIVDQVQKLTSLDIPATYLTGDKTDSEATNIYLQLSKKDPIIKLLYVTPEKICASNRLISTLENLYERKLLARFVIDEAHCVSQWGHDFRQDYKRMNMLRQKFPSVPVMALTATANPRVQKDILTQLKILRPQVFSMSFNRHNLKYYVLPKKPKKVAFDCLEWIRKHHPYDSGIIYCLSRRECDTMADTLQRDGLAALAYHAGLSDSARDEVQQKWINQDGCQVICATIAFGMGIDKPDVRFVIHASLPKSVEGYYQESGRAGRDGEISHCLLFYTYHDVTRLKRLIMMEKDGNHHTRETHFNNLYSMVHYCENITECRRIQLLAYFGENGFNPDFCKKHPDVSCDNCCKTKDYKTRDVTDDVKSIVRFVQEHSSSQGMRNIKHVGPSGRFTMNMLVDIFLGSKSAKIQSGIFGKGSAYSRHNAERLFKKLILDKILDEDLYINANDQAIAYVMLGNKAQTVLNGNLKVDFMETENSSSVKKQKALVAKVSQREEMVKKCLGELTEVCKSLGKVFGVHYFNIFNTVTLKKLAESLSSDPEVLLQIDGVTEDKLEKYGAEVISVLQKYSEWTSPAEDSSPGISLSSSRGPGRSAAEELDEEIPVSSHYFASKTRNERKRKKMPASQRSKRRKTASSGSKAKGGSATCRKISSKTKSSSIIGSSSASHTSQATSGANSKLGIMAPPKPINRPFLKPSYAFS
# How it was run: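 50 nM BLM preincubated 15 min at room temperature with compound in pH 8.0 Tris buffer containing 2.5 ug/ml poly(dI-dC); started with 200 nM TAMRA/BHQ-2 forked duplex and 2 mM ATP (final). Unwinding read as TAMRA fluorescence increase, two reads 2 h apart.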
# [15] = Validation screen for small molecules that induce DNA re-replication in MCF 10A normal breast cells (AID 463097); note: potency is the fitted concentration of half-maximal effect; nearly all actives have a fitted effect of over 60% in size
# How it was run: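 Read-out is Hoechst total nuclear intensity by fluorescence scanning imager, flagging increased high-DNA-content nuclei. Compounds were incubated with MCF 10A cells for 48 hr (37 C, 5% CO2) before 40 min staining.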
# [16] = Quantitative high throughput screen for delayed death inhibitors of the malarial parasite plastid, 96 hour incubation (AID 488745); note: potency is the fitted concentration of half-maximal effect; nearly all actives have a fitted effect of over 70% in size
# How it was run: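 Infected erythrocytes were added to compound in Albumax-supplemented RPMI 1640 at 0.1% parasitemia and 2% hematocrit (final), incubated 96 h at 37 C under 5% CO2, then luciferase reagent was added and luminescence measured.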
# [17] = Quantitative high throughput screen for delayed death inhibitors of the malarial parasite plastid, 48 hour incubation (AID 488752); note: potency is the fitted concentration of half-maximal effect; nearly all actives have a fitted effect of over 65% in size
# How it was run: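 Readout is firefly luciferase luminescence from a reporter integrated into the parasite genome, with lower signal taken as inhibited growth. Infected red cells (0.1% parasitemia, 2% hematocrit final) are cultured with compound for one 48 h cycle at 37 C.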
# [18] = Primary qHTS for small molecule stabilizers of the endoplasmic reticulum resident proteome: Secreted ER Calcium Modulated Protein (SERCaMP) assay (AID 1508630); details: SH-SY5Y GLuc-SERCaMP (Gaussia luciferase released on ER calcium loss) secretion, thapsigargin, luminescence; activity change, negative = inhibition: at 38.4 µM (top of the series) unless noted; note: potency is the fitted concentration of half-maximal effect; for activity change, negative = inhibition: % is set by controls: 0 for no effect and ±100 for the full control effect
# How it was run: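 GLuc-SERCaMP-expressing SH-SY5Y cells, pretreated 16 h with compound, are challenged with thapsigargin to empty ER calcium stores; after 4 h, coelenterazine is added directly to the medium and luminescence is imaged.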
# [19] = target: Dual specificity protein kinase CLK4 (Homo sapiens) (UniProt Q9HAZ1); test: qHTS Assay for Inhibitors of CDC-like Kinase 4 (Kinase-Glo Assay) (AID 1770); note: potency is the fitted concentration of half-maximal effect; nearly all actives have a fitted effect of over 65% in size
# UniProt Q9HAZ1, sequence (Q9HAZ1 whole entry, looked up): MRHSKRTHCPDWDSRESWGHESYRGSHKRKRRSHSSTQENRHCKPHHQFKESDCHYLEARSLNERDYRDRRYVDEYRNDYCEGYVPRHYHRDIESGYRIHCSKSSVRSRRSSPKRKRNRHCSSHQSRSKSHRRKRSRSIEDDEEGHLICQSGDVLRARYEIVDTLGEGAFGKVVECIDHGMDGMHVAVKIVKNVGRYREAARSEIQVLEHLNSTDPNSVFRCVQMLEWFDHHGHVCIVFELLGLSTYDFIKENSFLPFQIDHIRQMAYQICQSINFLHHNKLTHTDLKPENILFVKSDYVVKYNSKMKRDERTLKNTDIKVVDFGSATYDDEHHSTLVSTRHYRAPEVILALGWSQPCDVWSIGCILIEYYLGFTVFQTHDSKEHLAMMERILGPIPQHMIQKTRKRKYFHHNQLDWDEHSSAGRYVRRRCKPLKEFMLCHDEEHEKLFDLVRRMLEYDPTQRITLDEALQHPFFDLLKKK
# How it was run: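 Luminescent ATP-depletion read-out (Kinase-Glo) after 4.5 h room-temperature reaction of Clk4 (25 nM final) with RS peptide (100 uM) and ATP (1 uM), pH 7.5 Tris buffer with MgCl2 and DTT.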
# [20] = target: Dual specificity protein kinase CLK4 (Homo sapiens) (UniProt Q9HAZ1); test: qHTS Assay for Inhibitors of CDC-like Kinase 4 (ADP-Glo Assay) (AID 1771); note: potency is the fitted concentration of half-maximal effect; nearly all actives have a fitted effect of over 70% in size
# How it was run: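 Luminescence from ADP-Glo reports ADP produced by 25 nM Clk4 acting on 100 uM RS repeat peptide with 1 uM ATP over 1 hr at room temperature; residual ATP is depleted before ADP is converted to ATP for detection.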
# [21] = target: Dual specificity protein kinase CLK4 (Homo sapiens) (UniProt Q9HAZ1); test: qHTS Assay for Inhibitors of CDC-like Kinase 4 (ADP-FP Assay) (AID 1795);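 note: recombinant human CLK4 phosphorylating RS repeat peptide at 1 µM ATP; % is set by controls: 0 for no effect and ±100 for the full control effect; nearly all actives have a fitted effect of over 60% in size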
# How it was run: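 Kinase activity was measured as ADP production using Transcreener orange tracer (4 nM) and ADP antibody (1 ug/mL) fluorescence polarization, with ADP calculated from a calibration curve. The 1 h reaction contained 6.25 nM Clk4, 1 uM ATP and 100 uM RS peptide at pH 7.5 with Mg2+.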
# [22] = target: Cytochrome P450 2D6 (Homo sapiens) (UniProt P10635); test: qHTS Assay for Inhibitors and Substrates of Cytochrome P450 2D6 (AID 891);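 note: luciferin methyl ether substrate demethylated by CYP2D6 with NADPH regeneration; top concentration of the series differs between compounds; % is set by controls: 0 for no effect and ±100 for the full control effect; nearly all actives have a fitted effect of over 60% in size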
# How it was run: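 Human CYP2D6 (5 nM) with 30 uM Luciferin-ME EGE (at Km) in 100 mM KPO4, compound preincubated 10 min, then NADPH regeneration system for 60 min at room temperature. Luciferin read by luminescence; normalized to 1.43 uM quinidine.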
# [23] = target: Cytochrome P450 2C19 (Homo sapiens) (UniProt P33261); test: qHTS Assay for Inhibitors and Substrates of Cytochrome P450 2C19 (AID 899)
# UniProt P33261, sequence (P33261 whole entry, looked up): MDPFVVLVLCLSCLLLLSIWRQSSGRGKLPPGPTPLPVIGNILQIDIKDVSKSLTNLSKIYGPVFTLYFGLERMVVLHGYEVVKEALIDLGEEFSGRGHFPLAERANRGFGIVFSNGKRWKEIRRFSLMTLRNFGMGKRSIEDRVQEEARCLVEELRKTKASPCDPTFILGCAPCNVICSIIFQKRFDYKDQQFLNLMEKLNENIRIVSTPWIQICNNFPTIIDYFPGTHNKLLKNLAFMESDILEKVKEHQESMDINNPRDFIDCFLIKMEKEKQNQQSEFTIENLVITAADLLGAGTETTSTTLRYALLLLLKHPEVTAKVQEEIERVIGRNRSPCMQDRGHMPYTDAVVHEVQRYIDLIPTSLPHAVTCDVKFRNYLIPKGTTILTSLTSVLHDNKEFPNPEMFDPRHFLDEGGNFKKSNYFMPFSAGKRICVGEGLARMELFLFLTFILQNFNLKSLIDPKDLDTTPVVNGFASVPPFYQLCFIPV
# How it was run: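 5 nM human CYP2C19 with 10uM Luciferin-H EGE (at KM) in 50mM KPO4, compound preincubated 10 min at 37C, then NADPH regeneration for 60 min at 37C. Luciferin read by luminescence after detection reagent; normalized to 57uM ketoconazole as full inhibition.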
# [24] = target: Muscarinic acetylcholine receptor M1 (Rattus norvegicus) (UniProt P08482); test: qHTS Assay for Antagonists of Acetylcholine Muscarinic M1 Receptor: Measurement of IP-One Response (AID 944); note: potency is the fitted concentration of half-maximal effect; nearly all actives have a fitted effect of over 75% in size
# [25] = target: Rap guanine nucleotide exchange factor 4 (Homo sapiens) (UniProt Q8WZA2); test: Confirmatory qHTS for antagonist of cAMP-regulated guanine nucleotide exchange factor 4 (EPAC2) (AID 1645885); details: activity change, negative = inhibition: at 12.7 µM (top of the series) unless noted; note: potency is the fitted concentration of half-maximal effect; nearly all actives have a fitted effect of over 25% in size
# [26] = target: Ubiquitin carboxyl-terminal hydrolase 1 (Homo sapiens) (UniProt O94782); test: Inhibitors of USP1/UAF1: Pilot qHTS (AID 504865);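 note: rhodamine fluorescence freed from ubiquitin-rhodamine substrate followed over time; top concentration of the series differs between compounds; % is set by controls: 0 for no effect and ±100 for the full control effect; nearly all actives have a fitted effect of over 35% in size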
# UniProt O94782, sequence (O94782 whole entry, looked up): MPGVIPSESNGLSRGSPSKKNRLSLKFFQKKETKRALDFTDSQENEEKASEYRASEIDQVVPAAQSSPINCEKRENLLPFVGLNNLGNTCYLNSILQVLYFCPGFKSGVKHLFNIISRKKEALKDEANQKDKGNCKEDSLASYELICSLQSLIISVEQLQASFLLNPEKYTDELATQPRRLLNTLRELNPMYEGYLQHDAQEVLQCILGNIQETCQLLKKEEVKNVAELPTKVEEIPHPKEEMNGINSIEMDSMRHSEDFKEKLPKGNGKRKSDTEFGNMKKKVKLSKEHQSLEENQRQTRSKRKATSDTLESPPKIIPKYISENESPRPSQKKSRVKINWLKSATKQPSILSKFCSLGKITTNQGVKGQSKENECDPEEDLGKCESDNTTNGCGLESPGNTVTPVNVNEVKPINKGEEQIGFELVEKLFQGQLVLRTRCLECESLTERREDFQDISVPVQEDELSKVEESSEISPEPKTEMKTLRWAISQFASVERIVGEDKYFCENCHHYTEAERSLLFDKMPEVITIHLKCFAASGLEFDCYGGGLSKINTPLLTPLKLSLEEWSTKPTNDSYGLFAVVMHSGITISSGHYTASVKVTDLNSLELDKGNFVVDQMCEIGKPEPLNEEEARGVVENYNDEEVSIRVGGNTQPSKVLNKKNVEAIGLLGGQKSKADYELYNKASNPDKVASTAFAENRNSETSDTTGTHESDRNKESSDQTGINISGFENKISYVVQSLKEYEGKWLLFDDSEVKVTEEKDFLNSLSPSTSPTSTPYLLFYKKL
# How it was run: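 Deubiquitinase activity followed as kinetic rhodamine fluorescence release from 150 nM Ub-Rho. 1 nM USP1/UAF1 with compound, after 15 min room-temperature preincubation, in HEPES pH 7.8 buffer containing TCEP, EDTA, BSA and Tween-20.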
# Tags give direction and shape of the fitted curve or compound fluorescence and quenching.
structure (smiles),measurement,setting,value
C[N+](C)(C)CCC(=O)c1cccc2ccccc12,"activity change, negative = inhibition",[1],inconclusive: -104% [inhibitor] [at 38 µM]
same,"activity change, negative = inhibition",[2],active: 13.8% [at 38 µM]
same,Potency,[3],inactive
same,Potency,[4],"inconclusive: 0.199 µM [inhibitor, full curve]"
same,Potency,[5],"inconclusive: 17.8 µM [cytotoxic, side channel, single point]"
same,Potency,[6],"inconclusive: 25.1 µM [cytotoxic, side channel, partial curve]"
same,Potency,[7],"inconclusive: 2.51 µM [inhibitor, full curve]"
same,Potency,[8],active: 2.51 µM
same,Potency,[9],inactive
same,Potency,[10],"inconclusive: 12.6 µM [inhibitor, partial curve]"
same,Potency,[11],inactive
same,Potency,[12],inactive
same,Potency,[13],"inconclusive: 35.5 µM [inhibitor, partial curve]"
same,Potency,[14],"inconclusive: 14.1 µM [inhibitor, partial curve]"
same,Potency,[15],active: 1.78 µM
same,Potency,[16],"inconclusive: 4.65 µM [inhibitor, partial curve]"
same,Potency,[17],"inconclusive: 18.5 µM [inhibitor, single point]"
same,Potency,[18],inactive
Cc1noc(C)c1-c1nccc(NCCN2CCOCC2)n1,"activity change, negative = inhibition",[2],inactive: -8.35%
same,Potency,[19],"inconclusive: 31.6 µM [falling, partial curve]"
same,Potency,[20],"inconclusive: 31.6 µM [falling, partial curve]"
same,Potency,[21],inactive
same,Potency,[18],inactive
CC[C@H](C)N(C)C(=O)c1cc2ccccc2c(-c2ccccc2Cl)n1,Potency,[3],"inconclusive: 12.6 µM [activator, single point] and inconclusive: 15.1 µM [activator, partial curve]"
same,Potency,[22],inactive
same,"activity change, negative = inhibition",[5],inconclusive: -23.8%
same,Potency,[23],inactive
same,"activity change, negative = inhibition",[8],inconclusive: -22.2% [phenotype inactive]
same,Potency,[24],"inconclusive: 20 µM [inhibitor, partial curve, poor fit]"
same,Potency,[18],inactive
same,Potency,[25],"inconclusive: 31.2 µM [inhibitor, partial curve]"
COc1ncc2nc(-c3cccs3)c(=O)n(C)c2n1,"activity change, negative = inhibition",[1],inconclusive: 31.9% [activator]
same,Potency,[6],active: 2.51 µM
same,Potency,[19],"inconclusive: 35.5 µM [falling, partial curve]"
same,Potency,[20],"inconclusive: 39.8 µM [falling, single point]"
same,Potency,[18],"inconclusive: 25.1 µM [inhibitor, single point]"
Cc1cnc(CNc2nc(-c3ccccc3Cl)nc3ccccc23)cn1,"activity change, negative = inhibition",[1],inconclusive: -36.1% [inhibitor]
same,Potency,[4],"inconclusive: 7.94 µM [inhibitor, partial curve]"
same,activation,[6],inconclusive: 0.696%
same,Potency,[19],"inconclusive: 31.6 µM [falling, partial curve]"
same,Potency,[20],"inconclusive: 31.6 µM [falling, partial curve]"
same,Potency,[26],inactive
same,Potency,[18],inactive
